Measured values published in the CheMixHub viscosity set.

Conditions: 303.15 K; 101 kPa

| Structure (SMILES) | viscosity |
| --- | --- |
| CCC(=O)CC | 0.428 ± 0.02 mPa·s [study A] and 0.414 ± 0.016 mPa·s [study B] and 0.419 ± 0.011 mPa·s [study C] and 0.419 ± 0.006 mPa·s [study D] |
| OCc1ccccc1 | 4.201 ± 0.18 mPa·s [study A] and 4.65 ± 0.1 mPa·s [study B] and 4.605 ± 0.036 mPa·s [study C] and 4.654 ± 0.22 mPa·s [study D] and 4.645 ± 0.04 mPa·s [study E] and 4.525 ± 0.039 mPa·s [study F] |

± gives the uncertainty stated by the source. Some entries of the source have several records that differ or are many. This list holds those alone. An entry can have further records. Results that share an entry are repeats across runs, samples, wells, individuals or studies. Records carry a tag for their origin. Letters hold for one entry only.
